Assay results published in paper PMC12040169 (PLOS Biology, 2025).
Some of the results follow.

What follows are compounds tested on T1, C. trachomatis L2/434/Bu expressing GFP (CTL2-GFP). Settings: total inclusion area; 28.5 h, 10 µM; inhibitor.
T1 construct: L2/434/Bu GFP intracellular growth in HeLa cells
Parameters: species or system HeLa; C. trachomatis total inclusion area by high-content imaging, normalised to DMSO
Procedure, shortened: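 High-content images of fixed, Hoechst-stained infected cultures supply inclusion area and count (growth) plus nuclei number (viability), complementing bulk GFP/resorufin fluorescence. MIC determination is unchanged from the primary assay.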
With `O=C(NC1CC1)c1ccc(-n2cccn2)c(C#Cc2cccnc2)c1` [CBK282449] the “% of control remaining” value was 125.305. `O=C(O)C1CCCCN1Cc1ccccc1` (stereo not drawn) [CBK261687] was tested, and the “% of control remaining” value was 84.1021. For `Cc1cc(N2CCC(N(C)C)CC2)nc(N)n1` [CBK167267], the “% of control remaining” value was 80.6651. `CS(=O)(=O)N(CC(=O)O)c1ccc2c(c1)OCCO2` [CBK287151] was tested, and the “% of control remaining” value was 111.307. In the case of `Cn1c(C(=O)O)cc2cc(Oc3ccccc3)ccc21` [CBK286873], the “% of control remaining” value is reported as 95.5244. `CCC1CCCCN1C(=O)c1cc(C)ccc1F` (stereo not drawn) [CBK082754] was tested, and the “% of control remaining” value was 114.781. `O=C(Cn1c(=O)oc2ccccc21)Nc1ccc(S(=O)(=O)Nc2nccs2)cc1` [CBK267686] was tested, and the “% of control remaining” value was 89.3635. With `CC(C)NC(=O)NC(=O)C1CCN(CCOc2ccc(Cl)cc2Cl)CC1` [CBK034949] the “% of control remaining” value was 91.4523. In the case of `O=C(CSc1nnc(-c2cccnc2)n1-c1ccc(Br)cc1)Nc1ccc(F)cc1` [CBK266174], the “% of control remaining” value is reported as 108.93. With `CC(=O)c1ccc(-c2nccnc2NCC(O)COc2ccccc2)s1` (stereo not drawn) [CBK036976] the “% of control remaining” value was 123.964. `O=C(CSc1nc2ccccc2c(=O)[nH]1)NCCO` [CBK266469] was tested, and the “% of control remaining” value was 94.9342. For `CN(C)CCN(C)C(=O)c1ccc(-c2cc(C(F)(F)F)cc(C(F)(F)F)c2)nc1N(C)C` [CBK106069], the “% of control remaining” value was 84.3788. With `O=C1CCC(=O)N1CCN1C(=O)C2(CC(=O)N(CCC(F)(F)F)C2=O)c2ccccc21` (stereo not drawn) [CBK076031] the “% of control remaining” value was 98.9763. In the case of `CCN1CCc2cc(CN3CCCC(Cn4ccnc4C)C3)ccc21` (stereo not drawn) [CBK281965], the “% of control remaining” value is reported as 93.0198. With `CNC(=O)CN1C[C@H](NC(=O)c2cccc3c2NCCC3)[C@@H](C(C)C)C1` [CBK307073] the “% of control remaining” value was 94.7563. For `CCN(CCO)c1ccc(Nc2nc(-c3cccc4ccccc34)cn3ccnc23)cc1` [CBK066243], the “% of control remaining” value was 109.599. In the case of `O=c1ccc(-c2ccc(F)cc2)nn1CC1CCNCC1` [CBK284216], the “% of control remaining” value is reported as 90.4472. For `O=C(Nc1ccccc1)OC1CCCCC1` [CBK015569], the “% of control remaining” value was 55.2213. `CC(=O)Cn1cnc2c(cnn2-c2cccc(Cl)c2)c1=O` [CBK287692] was tested, and the “% of control remaining” value was 98.3291. For `CC(C)C(=O)N1CCN(c2ccccc2NC(=O)c2ccc(N3CCCCC3)c([N+](=O)[O-])c2)CC1` [CBK267609], the “% of control remaining” value was 106.552. With `O=C(O)c1ccccc1NS(=O)(=O)/C=C/c1ccccc1` [CBK042363] the “% of control remaining” value was 111.031. `O=C(CCSc1c(Cl)cccc1[N+](=O)[O-])Nc1ccc(Br)c2cccnc12` [CBK266777] was tested, and the “% of control remaining” value was 96.4045. `CCOc1ncccc1C(=O)OCc1cc2ccc(OC)cc2nc1Cl` [CBK295289] was tested, and the “% of control remaining” value was 93.8307. `O=C(O)c1ccc(CN2C[C@H](O)C[C@H]2c2nc(-c3ccc(F)cc3)no2)cc1` [CBK288870] was tested, and the “% of control remaining” value was 108.5. With `N#CCCCN1CCC(Oc2nccnc2OCc2cccc(Br)c2)CC1` [CBK153631] the “% of control remaining” value was 93.134. `O=C(NC1CC1)N1CCN(CCCOc2ccc(F)cc2)CC1` [CBK025077C] was tested, and the “% of control remaining” value was 3.1399. In the case of `Cn1c(=O)c(C(=O)Nc2ccc(OCc3ccccc3F)cc2)nc2ccccc21` [CBK285820], the “% of control remaining” value is reported as 96.3629. `O=C(O)CC(C(=O)OC1CCCCC1)N1CCOCC1` (stereo not drawn) [CBK265970] was tested, and the “% of control remaining” value was 135.835. For `O=C(Nc1ccc(=O)n2c1[C@@H]1C[C@@H](CN(C(=O)COc3ccccc3)C1)C2)c1cncnc1` [CBK288712], the “% of control remaining” value was 107.649. In the case of `COc1ccc(-n2ncc3c2CC(C)(C)CC3NS(C)(=O)=O)cc1` (stereo not drawn) [CBK306759], the “% of control remaining” value is reported as 85.7393. In the case of `O=C(NCCn1nc2c(cc1=O)CCCCC2)c1ccccc1` [CBK283278], the “% of control remaining” value is reported as 115.025. For `COc1cccc(C(=O)NCCC(=O)N2CCc3sccc3C2)c1` [CBK305376], the “% of control remaining” value was 55.9983. With `COc1ccc(Nc2nc(-c3cc(C(C)C)ccc3OC)cnc2N)c(C)c1` [CBK064098] the “% of control remaining” value was 109.411. In the case of `OCc1ccccc1-c1nccnc1NCc1ccco1` [CBK037098], the “% of control remaining” value is reported as 105.929. `O=C1CCc2c(Cc3c(Cl)cccc3Cl)c(O)nn21` [CBK083470] was tested, and the “% of control remaining” value was 84.0242. With `Cc1sc2c(C3CCN(C(=O)C4CC4)CC3)nc(C)n2c1C` [CBK285298] the “% of control remaining” value was 83.1726. For `COc1ccccc1NC(=O)C(c1ccccc1)N1CCOCC1` (stereo not drawn) [CBK269561], the “% of control remaining” value was 86.2026. With `COc1ccc(-c2c[nH]c([C@@H]3COCCN3Cc3ccc(C(=O)O)cc3)n2)cc1` [CBK289305] the “% of control remaining” value was 120.53. In the case of `CCN(CC)CCNc1c(N)c(=O)oc2ccccc12` [CBK261469], the “% of control remaining” value is reported as 107.619. `O=C(O)c1ccc(CN2C[C@H](O)C[C@H]2c2nc(-c3ccccn3)no2)cc1` [CBK288869] was tested, and the “% of control remaining” value was 116.525. With `CSc1nnc2c(n1)[nH]c1ccccc12` [CBK025967] the “% of control remaining” value was 111.796. In the case of `C=CCC1(CC=C)CCN1C(=O)c1cc(-c2ccccn2)n[nH]1` [CBK282448], the “% of control remaining” value is reported as 109.59. With `CCN(Cc1ccncc1)C(=O)Nc1ccc2[nH]ccc2c1` [CBK155136] the “% of control remaining” value was 111.232. In the case of `O=C(CSc1nnc(-c2ccccc2)n1-c1ccccc1)N/N=C/c1coc2ccccc2c1=O` [CBK262791], the “% of control remaining” value is reported as 94.4339. With `COc1cccc2c3c([nH]c12)C1(CCN(CCOc2ccccc2)CC1)N(C=O)CC3` [CBK039423] the “% of control remaining” value was 72.5568. In the case of `CC(C)[C@H](CO)NC(=O)c1cnc(-c2ccc(Cl)cc2)c(-c2ccco2)c1` [CBK036658], the “% of control remaining” value is reported as 83.6983. For `Cc1ccccc1CSCC(=O)Nc1ccc(S(=O)(=O)N2CCCCC2)cc1` [CBK264006], the “% of control remaining” value was 51.9376. In the case of `CC(C)(C)OC(=O)N1CCC(N(CCC(F)(F)F)Cc2ccc(-c3ccc(S(C)(=O)=O)cc3)nc2)CC1` [CBK167262], the “% of control remaining” value is reported as 73.9062. In the case of `COc1cc(-c2cnc3[nH]c(=O)n(CCc4ccncc4)c3n2)cc(OC)c1OC` [CBK064620], the “% of control remaining” value is reported as 113.409. For `CC(=O)N1CCc2sccc2C1c1ccccc1NC(=O)C1CC1` (stereo not drawn) [CBK282903], the “% of control remaining” value was 84.7862. For `Cc1cc(C)cc(OCc2nnc(SCC(=O)Nc3cc(C(F)(F)F)ccc3Cl)o2)c1` [CBK267890], the “% of control remaining” value was 86.8753.
